Results taken from the supplement of paper PMC5998384.

What was measured:
HeLa Kyoto [1] = test: solubility change mitosis vs G1/S (difference of NP-40 vs SDS log2 ratios) (log2 ratio difference); higher = more soluble in mitosis
HeLa Kyoto [2] = test: thermal stability score vs G1/S (z-score of summed log2 fold changes over temperatures); higher = more thermally stable than in G1/S
HeLa Kyoto [3] = test: solubility in G1/S (NP-40 vs SDS abundance) (log2 ratio); higher = more soluble; settings: cell cycle stage: G1/S
HeLa Kyoto [4] = test: melting temperature (median over replicates), in situ; higher = more thermally stable
[5] = cell cycle stage: early G1 (4.5 h after nocodazole release)
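Throughout, for melting temperature (median over replicates), in situ: HeLa Kyoto cells synchronized by double thymidine or nocodazole block, proteins quantified by TMT10plex mass spectrometry, three independent biological replicates.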
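Throughout, for solubility change mitosis vs G1/S (difference of NP-40 vs SDS log2 ratios): synchronized HeLa Kyoto cells (double thymidine block for G1/S, nocodazole release for mitosis), protein amounts in NP-40 versus SDS lysates quantified by mass spectrometry, three biological replicates.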
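Throughout, for solubility in G1/S (NP-40 vs SDS abundance): HeLa Kyoto cells arrested at G1/S by double thymidine block, proteins quantified by TMT10plex mass spectrometry in mild NP-40 versus SDS extracts, three biological replicates.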
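Throughout, for thermal stability score vs G1/S (z-score of summed log2 fold changes over temperatures): synchronized HeLa Kyoto cells, proteins quantified by TMT10plex mass spectrometry, three biological replicates, mitosis taken 0.5 h after nocodazole release, G1/S directly after double thymidine block.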

Row | Sequence | solubility change mitosis (log2) (HeLa Kyoto [1]) | thermal stability score (HeLa Kyoto [2]; [5]) | thermal stability score (HeLa Kyoto [2]; cell cycle stage: mitosis) | solubility in G1/S (log2) (HeLa Kyoto [3]) | melting temperature (HeLa Kyoto [4]; cell cycle stage: mitosis) [°C] | melting temperature (HeLa Kyoto [4]; cell cycle stage: G1/S) [°C]
1 | MDPNCSCAAGDSCTCAGSCKCKECKCTSCKKSCCSCCPVGCAKCAQGCICKGASDKCSCCA [MT2A] | -0.309 | 0.626 | -2.98 | 0.142 | 50.5 | –
2 | MEGLEENGGVVQVGELLPCKICGRTFFPVALKKHGPICQKTATKKRKTFDSSRQRAEGTDIPTVKPLKPRPEPPKKPSNWRRKHEEFIATIRAAKGLDQALKEGGKLPPPPPPSYDPDYIQCPYCQRRFNENAADRHINFCKEQAARISNKGKFSTDTKGKPTSRTQVYKPPALKKSNSPGTASSGSSRLPQPSGAGKTVVGVPSGKVSSSSSSLGNKLQTLSPSHKGIAAPHAGANVKPRNSTPPSLARNPAPGVLTNKRKTYTESYIARPDGDCASSLNGGNIKGIEGHSPGNLPKFCHECGTKYPVEWAKFCCECGIRRMIL [ZC2HC1A] | 0.306 | – | – | 0.351 | – | –
3 | MIRFILIQNRAGKTRLAKWYMQFDDDEKQKLIEEVHAVVTVRDAKHTNFVEFRNFKIIYRRYAGLYFCICVDVNDNNLAYLEAIHNFVEVLNEYFHNVCELDLVFNFYKVYTVVDEMFLAGEIRETSQTKVLKQLLMLQSLE [AP2S1] | -0.0592 | -0.917 | 0.509 | -0.179 | 52.8 | 51.8
